{
  "source": "the supplement of paper PMC4604168 (melanoma cell lines)",
  "note": "The list shows a part of the results. Most values come without repeats; read them as rough.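 Note: cells treated in 1,536-well plates, then fixed and DAPI-stained, with nuclei counted from automated high-throughput microscope images.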",
  "data": [
    {"system": "A375", "test": "cell count relative to DMSO control; melanoma cells; higher = more viable cells", "settings": "library dose: standard library concentration; 72 h", "units": {"cell count": "%"}, "values": [
      {"smiles": "C[C@]12O[C@H](C[C@]1(O)CO)n1c3ccccc3c3c4c(c5c6ccccc6n2c5c31)CNC4=O", "note": "[Lestaurtinib] + OCc1c[nH]c2ccccc12 [Indole-3-carbinol] (first compound 0.02 µM, partner dose 4 µM)", "cell count": 105},
      {"smiles": "C[As](C)SC[C@H](NC(=O)CC[C@H](N)C(=O)O)C(=O)NCC(=O)O", "note": "[Darinaparsin] + Nc1cccc2c1CN(C1CCC(=O)NC1=O)C2=O [lenalidomide] (first compound 2 µM, partner dose 5 µM)", "cell count": 83.4},
      {"smiles": "C[As](C)SC[C@H](NC(=O)CC[C@H](N)C(=O)O)C(=O)NCC(=O)O", "note": "[Darinaparsin] + CC(C)(C)c1cnc(CSc2cnc(NC(=O)C3CCNCC3)s2)o1 [SNS-032] (first compound 2 µM, partner dose 0.05 µM)", "cell count": 78.4},
      {"smiles": "Cn1cc(C2=C(c3cn(C4CCN(Cc5ccccn5)CC4)c4ccccc34)C(=O)NC2=O)c2ccccc21", "note": "[Enzastaurin] + C[C@]1(O)C[C@@H](c2nc(-c3ccc4ccc(-c5ccccc5)nc4c3)c3c(N)nccn32)C1 [OSI906] (first compound 4 µM, partner dose 2 µM)", "cell count": 114},
      {"smiles": "Cn1cc(C2=C(c3cn(C4CCN(Cc5ccccn5)CC4)c4ccccc34)C(=O)NC2=O)c2ccccc21", "note": "[Enzastaurin] + CO[C@H]1C[C@@H]2CC[C@@H](C)[C@@](O)(O2)C(=O)C(=O)N2CCCC[C@H]2C(=O)O[C@H]([C@H](C)C[C@@H]2CC[C@@H](OCCO)[C@H](OC)C2)CC(=O)[C@H](C)/C=C(\\C)[C@@H](O)[C@@H](OC)C(=O)[C@H](C)C[C@H](C)/C=C/C=C/C=C/1C [everolimus] (first compound 4 µM, partner dose 0.1 µM)", "cell count": 82.4}
    ]}
  ]
}
